# Source: the supplement of paper PMC9174493
# The list shows a part of the results. Single values of this set are uncertain. Values with irradiation are relative to irradiated vehicle.
# Legend:
# A549-Dual [1] = assay: NF-kB reporter (SEAP) activity, viability-corrected, relative to vehicle (fold change vs vehicle); higher = more activation of STING-IRF / NF-kB immune response reporter
# A549-Dual [2] = assay: ISRE reporter (Lucia luciferase) activity, viability-corrected, relative to vehicle (fold change vs vehicle); higher = more activation of STING-IRF / NF-kB immune response reporter
# 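For NF-kB reporter (SEAP) activity, viability-corrected, relative to vehicle in this document: viability correction based on the alamar blue assay, with concentrations leaving 10% survival or less dropped.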
Compound,"NF-kB reporter (A549-Dual [1]; 0.1 µM, irradiation: 8 Gy/4 fr)","NF-kB reporter (A549-Dual [1]; 0.1 µM, irradiation: none)","NF-kB reporter (A549-Dual [1]; 0.3 µM, irradiation: 8 Gy/4 fr)","NF-kB reporter (A549-Dual [1]; 0.3 µM, irradiation: none)","NF-kB reporter (A549-Dual [1]; 1 µM, irradiation: 8 Gy/4 fr)","NF-kB reporter (A549-Dual [1]; 1 µM, irradiation: none)","NF-kB reporter (A549-Dual [1]; 3 µM, irradiation: 8 Gy/4 fr)","NF-kB reporter (A549-Dual [1]; 3 µM, irradiation: none)","NF-kB reporter (A549-Dual [1]; 10 µM, irradiation: 8 Gy/4 fr)","NF-kB reporter (A549-Dual [1]; 10 µM, irradiation: none)","ISRE reporter (A549-Dual [2]; 0.1 µM, irradiation: 8 Gy/4 fr)","ISRE reporter (A549-Dual [2]; 0.1 µM, irradiation: none)","ISRE reporter (A549-Dual [2]; 0.3 µM, irradiation: 8 Gy/4 fr)","ISRE reporter (A549-Dual [2]; 0.3 µM, irradiation: none)","ISRE reporter (A549-Dual [2]; 1 µM, irradiation: 8 Gy/4 fr)","ISRE reporter (A549-Dual [2]; 1 µM, irradiation: none)","ISRE reporter (A549-Dual [2]; 3 µM, irradiation: 8 Gy/4 fr)","ISRE reporter (A549-Dual [2]; 3 µM, irradiation: none)","ISRE reporter (A549-Dual [2]; 10 µM, irradiation: 8 Gy/4 fr)","ISRE reporter (A549-Dual [2]; 10 µM, irradiation: none)"
CC(C(=O)O)c1ccc2c(c1)Cc1cccnc1O2 (stereo not given) [Pranoprofen],0.591,0.556,0.682,0.497,0.611,0.526,0.572,0.591,0.575,0.708,0.797,0.761,0.701,0.645,0.676,0.928,0.755,0.898,0.771,0.851
Nc1nc(F)nc2c1ncn2C1OC(COP(=O)(O)O)C(O)C1O (stereo not given) [Fludarabine Phosphate],1.17,1.07,1.44,1.07,1.19,1.17,1.26,0.872,0.887,0.92,0.957,1.02,1.43,1.09,1.1,0.829,1.12,0.877,0.911,0.901
CC(C)=CCC/C(C)=C/CC/C(C)=C/CCC(=O)OC/C=C(\C)CCC=C(C)C [Gefarnate],1.1,1.37,1.09,1.22,1.24,0.917,1.24,1.04,0.835,1.11,0.95,1.27,0.89,0.924,0.949,0.926,0.852,0.904,0.93,0.846
Cc1ccc(C(C)C)cc1 [p-Cymene],1.19,1.33,1.08,1.16,1.3,0.892,1.59,0.958,0.843,1.74,1.11,1.17,0.959,1.07,0.964,0.879,0.831,0.918,1.06,0.888
COc1cc2nccc(Oc3ccc(NC(=O)NC4CC4)c(Cl)c3)c2cc1C(N)=O [Lenvatinib (E7080)],1.34,0.924,1.39,1.01,1.17,0.832,1.11,0.743,0.683,0.708,1.03,0.821,1.24,0.87,0.869,0.618,0.637,0.406,0.472,0.374
CCC1=CC2CN(C1)Cc1c([nH]c3ccccc13)C(C(=O)OC)(c1cc3c(cc1OC)N(C)C1C(O)(C(=O)OC)C(OC(C)=O)C4(CC)C=CCN5CCC31C54)C2.O=C(O)C(O)C(O)C(=O)O.O=C(O)C(O)C(O)C(=O)O (stereo not given) [Vinorelbine Tartrate],1.15,2.66,0.877,2.88,0.824,2.97,0.925,2.12,0.704,1.94,0.278,2.11,0.104,1.33,0.132,1.05,0.102,0.668,0.1,0.738
CN(C)C(=O)c1cc2cnc(Nc3ccc(N4CCNCC4)cn3)nc2n1C1CCCC1 [Ribociclib (LEE011)],0.936,0.905,0.8,1,0.887,1.37,0.869,1.09,0.925,0.961,0.913,1.24,0.799,1.17,0.91,1.17,0.812,0.912,0.741,1.22
CC(C)c1nc(CN(C)C(=O)NC(CCN2CCOCC2)C(=O)NC(CCC(Cc2ccccc2)NC(=O)OCc2cncs2)Cc2ccccc2)cs1 (stereo not given) [Cobicistat (GS-9350)],1.36,1.32,1.06,1.77,0.956,1.83,1.04,1.49,1.11,0.979,1.18,1.26,1.13,1.39,1.14,1.48,1.35,1.14,1.18,1.39
COc1ccc2cc1Oc1ccc(cc1)CC1c3c(cc4c(c3Oc3cc5c(cc3OC)CCN(C)C5C2)OCO4)CCN1C (stereo not given) [Cepharanthine],1.2,1.37,1.36,0.947,1.27,1.19,1.24,0.995,0.983,1.17,1.13,0.964,1.15,0.905,1.04,1.32,1.09,1.18,1.21,3.34
CCOc1ccc(NC(C)=O)cc1 [Phenacetin],0.84,1.11,0.821,1.18,1.24,0.888,1.35,0.944,0.878,0.896,1.05,0.868,0.832,0.859,0.85,0.823,0.898,1.02,0.881,0.871
O=C(OCC1OC(OC(=O)c2cc(O)c(O)c(OC(=O)c3cc(O)c(O)c(O)c3)c2)C(OC(=O)c2cc(O)c(O)c(OC(=O)c3cc(O)c(O)c(O)c3)c2)C(OC(=O)c2cc(O)c(O)c(OC(=O)c3cc(O)c(O)c(O)c3)c2)C1OC(=O)c1cc(O)c(O)c(OC(=O)c2cc(O)c(O)c(O)c2)c1)c1cc(O)c(O)c(OC(=O)c2cc(O)c(O)c(O)c2)c1 (stereo not given) [Tannic acid],1.1,1.17,0.896,1.59,1.51,1.23,1.88,2.85,1.7,2.07,1.23,1.06,1.07,1.44,1.24,1.16,1.08,9.89,0.32,0.777
O=c1cc[nH]c(=O)[nH]1 [Uracil],1.32,1.25,1.03,1.28,0.98,1.73,1.11,1.21,1.18,1.09,1.25,1.41,1.27,1.3,1.12,1.29,1.31,1.07,1.08,1
CC(=O)Nc1cccc(-n2c(=O)n(C3CC3)c(=O)c3c(Nc4ccc(I)cc4F)n(C)c(=O)c(C)c32)c1,1.31,1.88,1.55,3.22,1.61,7.33,5.12,3.68,3.78,6.21,0.378,0.787,0.0964,0.314,0.124,0.426,0.123,0.233,0.173,0.43
CCCC(=O)OC1(C(=O)CCl)C(C)CC2C3CCC4=CC(=O)C=CC4(C)C3(F)C(=O)CC21C (stereo not given) [clobetasone butyrate],0.702,1.18,1.22,0.983,1.46,0.699,1.36,0.715,0.499,0.552,0.0594,0.304,0.0632,0.24,0.0592,0.146,0.0567,0.209,0.0512,0.227
CC(C)CC(NC(=O)CNC(=O)c1cc(Cl)ccc1Cl)B(O)O (stereo not given) [Ixazomib (MLN2238)],1.23,1.5,1.36,2.08,1.31,2.82,0.95,2,0.744,1.55,0.163,1.08,0.0707,0.412,0.0801,0.487,0.0735,0.478,0.0428,0.292
CC#CCn1c(N2CCCC(N)C2)nc2c1c(=O)n(Cc1nc(C)c3ccccc3n1)c(=O)n2C (stereo not given) [Linagliptin],0.933,1.13,1.01,0.997,1.03,1.45,0.906,1.1,0.97,1.09,1.03,1.13,1.16,0.978,1.07,1.08,1.19,0.903,1.1,1.11
O=C(/C=C/c1ccc(O)c(O)c1)OC(Cc1ccc(O)c(O)c1)C(=O)O (stereo not given) [Rosmarinic acid],1.06,1.31,0.864,1.54,1.04,1.43,1.12,1.5,1.06,1.09,0.983,0.848,0.782,1.1,0.725,1.32,0.76,1.31,0.676,0.862
COC1OC2OC3(C)CCC4C(C)CCC(C1C)C24OO3 (stereo not given) [Artemether],0.979,1.07,1.07,1.05,0.985,1.5,0.985,1.23,1.03,1.21,1.01,1.33,1.09,1.22,1,1.2,1.21,1.12,1.15,1.32
C=C1CCC2C(C)(CO)C(O)CCC2(C)C1C/C=C1\C=COC1=O (stereo not given) [Dehydroandrographolide],0.933,0.761,0.984,0.785,0.948,0.794,1.09,0.851,0.564,0.947,1.07,0.699,0.878,0.738,0.776,0.717,0.782,0.9,0.384,0.557
CCN1CCN(Cc2ccc(Nc3ncc(F)c(-c4cc(F)c5nc(C)n(C(C)C)c5c4)n3)nc2)CC1.CS(=O)(=O)O,0.91,0.996,0.83,1.05,0.842,1.08,0.695,0.952,0.814,1.15,0.935,1.22,0.769,1.22,0.747,1.48,0.526,1.18,0.698,1.42
CNS(=O)(=O)CC1CCC(N(C)c2ncnc3[nH]ccc23)CC1.O=C(O)/C=C\C(=O)O (stereo not given) [Oclacitinib?maleate],0.988,2.42,1.37,2.08,1.73,1.39,2.07,1.23,1.4,1.05,0.653,1.88,0.939,1.04,0.522,0.742,0.45,0.421,0.183,0.337
Cc1nc(Nc2ccc(F)cc2)nc(N2CCc3ccccc3C2C)c1C.Cl (stereo not given) [Revaprazan Hydrochloride],1.03,1,0.989,0.787,1.03,0.787,0.977,0.834,0.692,0.831,0.929,0.817,0.926,0.545,0.478,0.471,0.574,0.799,0.172,0.701
NC(=O)Cc1cccc(C(=O)c2ccccc2)c1N [Nepafenac],1.03,1.06,0.979,1.2,1.33,0.891,1.33,0.963,0.97,0.918,0.933,0.813,0.788,0.881,0.821,0.748,0.829,0.829,0.619,0.876
